# In all, about 150,000 compounds went through this assay and about 540 (0.36%) showed an effect of 50% or more. Some of the results follow.
# System: Plasmodium falciparum
# Experiment: Primary screen in NF54 nanoGlo assay, in single point, at 2uM, 72h; a lower Z score goes with more inhibition
# Format: functional, Erythrocyte
# Conditions: timepoint 72 hour
SMILES,% Inhibition [%],Z score
CCC(C)N(Cc1ccc(OC)cc1)CC(O)COCc1ccco1 (stereo not drawn),-7,0.98
Cc1nc(-c2nc(C(C)(C)NC(=O)c3ccccc3)no2)co1,-15,2.39
CC(CCN1CCCC(c2nnc[nH]2)C1)c1ccccc1 (stereo not drawn),-12,1.55
O=C(Nc1nnc(CC(F)(F)F)s1)C1CC12CCOC2 (stereo not drawn),0,0.04
CCn1ncc(C(=O)N2CCC(Cc3ccc(COc4ccc(F)cc4)cc3)CC2)c1C,-12,2.26
Cc1cnn(Cc2c(C(=O)N3CC4(C3)C[C@](C)(O)CO4)noc2C)c1,-4,0.58
CC(C)Cc1nnc2n1CC(C)(C)CC2,-1,0.13
COC(=O)c1cccc(C(=O)N2CCC[C@@H]2Cc2ccccc2Cl)n1,-4,0.55
CCc1nc(N(C)C[C@H](O)COC)ncc1C,-19,1.99
O[C@H]1CCOC[C@@H]1Nc1ccnc2cc(Cl)ccc12,5,-0.99
COc1c(O)ccc2c(=O)c3c(O)cc(O)c(OC)c3n(C)c12,42,-4.72
CN1CCN(C[C@@H]2CN(C(=O)Cc3c[nH]c4ccccc34)C[C@@H]2CO)CC1,-8,1.52
FC(F)(F)c1cc(N2CCN(c3ncnc4c3CCCC4)CC2)ncn1,-14,1.77
Cn1nc2c(c1C(=O)N1CC(Cc3ccoc3)C1)CCC2,-4,0.7
COc1cc2c(nn1)CCN(CC(=O)Nc1nncs1)C2,11,-1.06
Cc1nc2ccccc2c(N2CCC(c3nnc[nH]3)CC2)c1C,-8,0.86
Cc1cc(C(=O)N(C)CC2(CO)CCOCC2)cc2sc(N)nc12,-12,2.12
CC1CCN(C(=O)NC(=O)c2ccccc2)CC1,-12,1.4
CC(C)c1noc(CN[C@H](c2ccccc2)C2(CO)CCOCC2)n1,-4,0.42
CCc1ccc([C@H](COC)NS(=O)(=O)CCOCC2CC2)o1,6,-1.06
CN(C[C@H]1CCCCN1C)c1ccc(C(N)=O)cn1,-11,2.15
CCC(NS(=O)(=O)CCC1CCCO1)c1cccs1 (stereo not drawn),-3,0.33

SMILES,% Inhibition [%],Z score
CCn1c(=O)sc2cc(NC(=O)COc3ccc(Cl)cc3)ccc21,1,-0.08
CCOC[C@H]1CCN(Cc2cccn2CC(=O)OC(C)(C)C)C1,4,-0.42
CCn1c(=O)c(N2CCC[C@H](C(=O)NCc3cccc(C)c3)C2)nc2ccccc21,31,-0.01
COc1cccc(-c2nn(Cc3ccccc3)c(-c3cccc(OC)c3)c2Cl)c1,27,-3.06
NC(=O)C[C@@H](NC(=O)c1nc2n(n1)CCCN2)c1cccc(Cl)c1,6,-1.13
Cn1cc(C(=O)N2CC[C@@](O)(c3ccccc3)[C@H]3CCCC[C@@H]32)ccc1=O,-6,1.14
Cc1coc(-c2cccc(NC(=O)N(C)C[C@H](O)C(F)(F)F)c2)n1,-12,1.43
Cc1noc(C(C)(C)S(=O)(=O)C2CC2)n1,8,-1.35
CC1CC(C)CN(CC(C)NCc2cncn2C)C1 (stereo not drawn),5,-0.73
O=C(Cc1noc(-c2cnccn2)n1)Nc1ccccn1,-4,0.79
C1CCC(Nc2nc(C3CC3)ns2)C1,-13,1.58
CCN(CC1CCN(c2ccccn2)CC1)C(=O)[C@H]1CC[C@@H](c2ccccc2)O1,0,-0.02
O=C(CC1CCCC1)Nc1nc(C2CC2)cs1,-2,0.27
CCCCn1nnnc1N1CCN(C(=O)c2cccn2C)CC1,-3,0.44
CCC(CC)C(=O)N1CC(=O)N2CC[C@@H](CC(=O)N3CCOCC3)[C@@H](/C=C\COc3ccccc3C1)C2,-5,0.69
O=C(CCN(C(=O)COCc1ccccc1)C1CCCCC1)Nc1nnc(-c2cccc(Cl)c2)s1,-13,1.88
CNc1cc(C)nc(-c2cccc(C(=O)N(CCO)CCN(C)C)c2)n1,-15,1.75
CCNc1ncc(C(=O)NCc2nc(C)cc(C)n2)cn1,-1,0.22
Cn1cc(-c2ccc(NC(=O)N3CCOCC4(CC4)C3)nn2)cn1,-12,1.38
CC1CC1C(=O)NCCC(=O)N(C)CC#N (stereo not drawn),-2,0.36
C[C@@H](c1ccccn1)N(C)Cc1noc2c1CCCC2,-8,1.08
Cc1c(C(=O)NCc2ccccc2F)sc2ncnc(N(C)C3CCCCC3)c12,-16,1.49
